According to the BET-seq Pho4 binding data (Le et al. 2018):
The other results are listed elsewhere or left out. Values were computed here from the reads of four pooled replicates and scatter widely.

biological target: T1, Pho4 (S. cerevisiae) (UniProt P07270); assay: relative binding free energy (BET-seq); higher = weaker binding; details: reference: library average
T1 sequence: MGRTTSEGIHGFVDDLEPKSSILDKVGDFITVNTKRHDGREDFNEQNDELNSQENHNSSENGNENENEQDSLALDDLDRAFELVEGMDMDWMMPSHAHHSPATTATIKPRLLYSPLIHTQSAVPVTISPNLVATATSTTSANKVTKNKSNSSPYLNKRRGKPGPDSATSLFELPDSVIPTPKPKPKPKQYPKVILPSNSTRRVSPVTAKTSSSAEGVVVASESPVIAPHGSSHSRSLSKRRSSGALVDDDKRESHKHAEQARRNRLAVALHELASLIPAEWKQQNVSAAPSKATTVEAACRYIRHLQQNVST

Relative binding free energy, 0.24 kcal/mol:
TAAAACACGTGACGGT, TGATTCACGTGGTTTT, TTTTACACGTGGCGTC

Relative binding free energy, -0.08 kcal/mol:
AGGTGCACGTGGCGGG, TTGTGCACGTGGCAGC, AGTCGCACGTGGTGTG, CGCGTCACGTGGGGTT

Relative binding free energy, -0.27 kcal/mol:
ATCAGCACGTGCGGGG

Relative binding free energy, 0 kcal/mol:
TGGCGCACGTGTATTT, TGGGACACGTGGTGTT, GGTGTCACGTGGCCTT, TGATACACGTGCTTGT

Relative binding free energy, 0.16 kcal/mol:
GTAGTCACGTGAGGAT, TGCATCACGTGTTGGA, TTGTTCACGTGGGGAA

Relative binding free energy, -0.12 kcal/mol:
TGGAGCACGTGCAGGG, TGCGGCACGTGTGGTA, ACTTGCACGTGGGGGG, AGTAACACGTGGGTCG, CTTGCCACGTGTTGGT

Relative binding free energy, -0.05 kcal/mol:
AGGTGCACGTGCTGGT, TTCAACACGTGGTTTG, TGCGTCACGTGGTGTA

Relative binding free energy, 0.02 kcal/mol:
AGTAACACGTGTCAGG, TTTATCACGTGGTTAA, TGGAGCACGTGGAATT, GTTAACACGTGGTGTA

Relative binding free energy, -0.17 kcal/mol:
ATATACACGTGTTTGT, ACGGGCACGTGGAGGG, GTAGGCACGTGGGGTG

Relative binding free energy, 0.04 kcal/mol:
CAAGACACGTGGGAGG, CGTGGCACGTGAGGAG, TATTCCACGTGGTATT, ATTGACACGTGTAGCG, CATGTCACGTGGCGGT, AAATTCACGTGTGTAG, GATGGCACGTGCCGTG, AAGTGCACGTGTCTGG, ACAGACACGTGGAGGG

Relative binding free energy, -0.15 kcal/mol:
TGTCACACGTGCGGGT, ATTAGCACGTGATTAG, TATAACACGTGGTGTT

Relative binding free energy, -0.09 kcal/mol:
CGTGCCACGTGGTTGG, CAATGCACGTGGCGGG, GGGCGCACGTGCGTTT

Relative binding free energy, 0.25 kcal/mol:
ATGTTCACGTGCGATG, CGTATCACGTGAGGTA

Relative binding free energy, -0.13 kcal/mol:
GTGAGCACGTGGTGCA

Relative binding free energy, 0.27 kcal/mol:
AAGTTCACGTGTGTGG, CGGTTCACGTGCGGAT, TTGGTCACGTGTCGTT, TAGTTCACGTGGATTG, TGTTACACGTGAAAGT, TGTATCACGTGAATAG, CTGTTCACGTGGTAAT, GTCTTCACGTGCATTG

Relative binding free energy, -0.03 kcal/mol:
TTTAACACGTGTCTAG, GTAGACACGTGTTTGT, GGTGACACGTGGGGCT, TCGGACACGTGTGTGT, TGTAACACGTGTATGA

Relative binding free energy, 0.39 kcal/mol:
ATTTTCACGTGTAATC

Relative binding free energy, -0.07 kcal/mol:
TAGGGCACGTGGTAAG, TGGTCCACGTGTTTGG, TATGTCACGTGGGGAA, TAGTGCACGTGGCAAG, TTTAACACGTGGCGTA

Relative binding free energy, 0.51 kcal/mol:
TGTTTCACGTGACCGT

Relative binding free energy, -0.14 kcal/mol:
TTAGTCACGTGTTCGT, AAAGTCACGTGGGGTC, TGGGGCACGTGGCGGA, GGATGCACGTGCTGGG, TGGGGCACGTGACCGG, ATGTGCACGTGCTTTT

Relative binding free energy, 0.14 kcal/mol:
TTGTACACGTGATGAA, ATGCTCACGTGCGGTA, AGTATCACGTGCTGGC

Relative binding free energy, 0.35 kcal/mol:
ATTTTCACGTGATCAG, TTGGGCACGTGAAAAA

Relative binding free energy, -0.16 kcal/mol:
CTAGGCACGTGTTATG, TAAGGCACGTGGTTCT, TGTGCCACGTGTTCGG, AACGGCACGTGGTTAT, TTGTGCACGTGCACGT

Relative binding free energy, 0.07 kcal/mol:
GTTTCCACGTGGTAGA, CTGTACACGTGGTGGA, ATCAACACGTGTGTTG, ATGGTCACGTGTAGTT, TAATTCACGTGGTAAT, GTTGGCACGTGTGTGA

Relative binding free energy, -0.32 kcal/mol:
AAGAGCACGTGGGAGG

Relative binding free energy, -0.22 kcal/mol:
AGTGACACGTGGGTAT, TTAACCACGTGGTTGT

Relative binding free energy, 0.03 kcal/mol:
TAAGTCACGTGGTGGG, AGTTCCACGTGTGCGT, GGGTACACGTGCATGG, GGATGCACGTGTTATT, GTATGCACGTGATGTG, GGGATCACGTGGGTTA

Relative binding free energy, 0.17 kcal/mol:
TGGAGCACGTGAATAG, GTACTCACGTGGTCGT, GTTCGCACGTGTAATG, AGACTCACGTGGGGCG

Relative binding free energy, 0.06 kcal/mol:
AGTGTCACGTGGAGCG, ATTTGCACGTGGAGGT, TCTGGCACGTGATATT, AGGAGCACGTGGAATA, GTTTGCACGTGCGGTA, TATAGCACGTGATGAT

Relative binding free energy, 0.13 kcal/mol:
TCGGTCACGTGTATTT, TTGGTCACGTGTGTAG, GGGTCCACGTGTTTAA, ATCGGCACGTGAGGTT, TAAAGCACGTGAGGGG

Relative binding free energy, -0.1 kcal/mol:
ATATGCACGTGTTAGA, TTTTGCACGTGCTAAT, GGTCGCACGTGCAGGT, TTAAGCACGTGTGTAT, AGCGACACGTGGGTTT

Relative binding free energy, -0.31 kcal/mol:
AGCAGCACGTGGTGGT

Relative binding free energy, 0.34 kcal/mol:
ACTTTCACGTGTGGGA, GTTCTCACGTGAGTGT, GTGTTCACGTGAGATG

Relative binding free energy, 0.44 kcal/mol:
GATTTCACGTGCGAGT, GTATTCACGTGTCGCA

Relative binding free energy, 0.01 kcal/mol:
GTAAGCACGTGTGGGT, GTGGGCACGTGTCGTC, AGGGTCACGTGGCGAT, GTATACACGTGGTCAG, AGGAGCACGTGTTGAG

Relative binding free energy, -0.02 kcal/mol:
CGGGTCACGTGGTTGT, CGGGTCACGTGGGTCG, TGGGGCACGTGAGCAT, CTTGTCACGTGTTCTG

Relative binding free energy, 0.18 kcal/mol:
TCAGTCACGTGTGCTG, TTTTCCACGTGTCGGG, GTGATCACGTGTATAG, GTGGTCACGTGTAGAG, GGAGTCACGTGCGAGT, TTGTACACGTGAGAGC

Relative binding free energy, 0.5 kcal/mol:
GATTTCACGTGAGCAT

Relative binding free energy, 0.22 kcal/mol:
TGCTTCACGTGGAGGC, GTGTTCACGTGCGAGT, TTGAACACGTGAGAGG, AGTATCACGTGACGTG

Relative binding free energy, 0.15 kcal/mol:
ATGCTCACGTGGTTAT

Relative binding free energy, 0.36 kcal/mol:
TGGAACACGTGACATT, TATTTCACGTGCGTTT

Relative binding free energy, -0.11 kcal/mol:
GGGCGCACGTGGAGGC, GAGTACACGTGGTCGG, AGGTGCACGTGGTATG

Relative binding free energy, -0.18 kcal/mol:
AAAGACACGTGGGGTG, CGGGGCACGTGGGATG

Relative binding free energy, -0.04 kcal/mol:
GTGAACACGTGGCTTG, GCGAACACGTGGGTGG, TATAACACGTGTTAGA, GGTAGCACGTGGTGTT, CTGTGCACGTGGTCTT, GTAGACACGTGGTATT, TGCGACACGTGGGGTT

Relative binding free energy, 0.38 kcal/mol:
TAGTTCACGTGAAATG

Relative binding free energy, 0.32 kcal/mol:
CTGTTCACGTGAAATG, ATTTTCACGTGTCGGA

Relative binding free energy, 0.1 kcal/mol:
GGTACCACGTGGTTGC, GGGGCCACGTGCAAGT, GTTGTCACGTGCGTTG, GTCTACACGTGGGGTG, GATGACACGTGGCGGT

Relative binding free energy, 0.12 kcal/mol:
TGAGTCACGTGCTTAT, ATTAGCACGTGTTAAT, TTCGTCACGTGTATGG, TTCTACACGTGTGTTA, CGAGTCACGTGTCGGG, AATGTCACGTGTGCGC, GAATACACGTGGTGGT

Relative binding free energy, 0.28 kcal/mol:
GTTATCACGTGAGGGT, GGCATCACGTGATGTT, CAATACACGTGAGGGG

Relative binding free energy, 0.11 kcal/mol:
CTGATCACGTGGGGAT, TTGTGCACGTGATTAA, CGTGACACGTGAGTAG, CGCGGCACGTGACGGG, GCGTACACGTGGGTTT

Relative binding free energy, 0.08 kcal/mol:
GGCATCACGTGGGATG, AAAATCACGTGGTGTA, TTATGCACGTGACGTG, TTACGCACGTGATGGT, CGTAGCACGTGATGTG, CCGTGCACGTGATGTG, TGATACACGTGATATG, TGTAACACGTGCCGTT, TGGGACACGTGTTGTA

Relative binding free energy, 0.2 kcal/mol:
AGATGCACGTGAAGGG, GTGTTCACGTGCTGGT, ATGTGCACGTGAAGGT, ATAGACACGTGAGGTT, ATCTTCACGTGCTGTG

Relative binding free energy, -0.28 kcal/mol:
ACGGGCACGTGGGCGG

Relative binding free energy, 0.49 kcal/mol:
GTATTCACGTGAGCGT

Relative binding free energy, 0.09 kcal/mol:
GATGTCACGTGGTCGA, TCTGACACGTGTGTTT

Relative binding free energy, -0.19 kcal/mol:
ATTCGCACGTGGTGTG

Relative binding free energy, 0.31 kcal/mol:
GGATTCACGTGTATAG, CGTATCACGTGAGTTA, GGTTTCACGTGTGGCG

Relative binding free energy, 0.21 kcal/mol:
GGACTCACGTGGTGGG, GTGATCACGTGAGGAG

Relative binding free energy, 0.05 kcal/mol:
AGTTACACGTGGGCTG, TATGTCACGTGGTGTG, TTATGCACGTGTGGAT

Relative binding free energy, -0.06 kcal/mol:
TTGTGCACGTGGGGAT, GGTCGCACGTGTGTCA

Relative binding free energy, 0.23 kcal/mol:
GGTTACACGTGTAAGT

Relative binding free energy, 0.19 kcal/mol:
ACGGTCACGTGTAGTT, GGGGGCACGTGACTAG

Relative binding free energy, -0.2 kcal/mol:
GGCAGCACGTGGCGGT, AGGGGCACGTGGTTCT, ATGAGCACGTGGTTTT

Relative binding free energy, 0.4 kcal/mol:
GTGGTCACGTGTAAAT

Relative binding free energy, -0.01 kcal/mol:
GTAAGCACGTGTGGTC, AAGGGCACGTGAGGCG, TAATGCACGTGGTAAA, ATGTTCACGTGGGAGA

Relative binding free energy, -0.3 kcal/mol:
GTACGCACGTGGGCTG

Relative binding free energy, 0.3 kcal/mol:
GATTTCACGTGTGGTA, TTGTCCACGTGAAGTG, TAGTGCACGTGAGGTG, TTAGACACGTGAGTTT

Relative binding free energy, 0.33 kcal/mol:
GTGATCACGTGAAGGG, GGGTTCACGTGGAGCC
